Holding throughout (assay): Primary Screen for Target Class Profiling of Small Molecule Inhibitors of Methyltransferases
Assay [1] addresses Glycine N-methyltransferase (Homo sapiens) (UniProt Q14749). As to conditions: purified enzyme, MTase-Glo SAH luminescence; measured here: GNMT inhibition; at 40 µM; stronger effect = lower value. From the text: (§1) PI: Matthew D. Hall Ph.D. and Quinlin M. Hanson Ph.D.
(§2) National Center for Advancing Translational Sciences (NCATS)
(§3) National Institute of Health (NIH), Rockville, MD
(§4) Target class profiling (TCP) is a chemical biology approach amenable to investigating understudied biological targets. TCP is achieved by developing a generalizable assay platform and applying it to screen a curated set of compound libraries against representative members of a target class. Small molecule methyltransferases (SMMTase) are a subclass of methyltransferase that act on metabolites to modulate signaling pathways, metabolize xenobiotics, or balance the available methyl pool. We screened four curated libraries totaling 27,574 unique compounds against the SMMTases nicotinamide N-methyltransferase (NNMT), phenylethanolamine N-methyltransferase (PNMT), histamine N-methyltransferase (HNMT), glycine N-methyltransferase (GNMT), catechol O-methyltransferase (COMT), and guanidinoacetate N-methyltransferase (GAMT). The data generated by this TCP can be leveraged for informed tool molecule development. For example, in the associated publication we identified a chemotype of HNMT-selective inhibitors. Additionally, we identified a putative SMMTase-selective inhibitor with potential as a tool molecule for studying broader methyltransferase biology.
(§5) High-through put screening assays were developed at the National Center for Advancing Translational Science (NCATS) for the enzymes NNMT, PNMT, HNMT, GNMT, COMT, and GAMT. Enzymatic activity was measured as a function of SAM cofactor conversion using the MTase Glo kit (Promega) for all enzymes. All assays were performed in 1536-well format with substrates and SAM concentrations at KM values. Enzyme concentration and assay timing were optimized for 10-20% SAM conversion. Initial screening of 27,574 compounds was done as single-point assays using the highest compound concentration (40 uM). […] These compounds were replated in 11-point dose response and assayed against NNMT, PNMT, HNMT, GNMT, COMT, GAMT, and a counter-assay. The IC50 and efficacy (maximal response) values were determined for each dose-response curve. These values are also accounted for in the area under the curve (AUC) values.
(§6) PROTOCOL TABLE (as described by Inglese J, Shamu CE and Guy RK. 2007)
(§7) SEQUENCE No. (e.g., 1, 2, 3, etc.); […] (e.g., Cells, Incubation, Reagent, etc.); VALUE; DESCRIPTION.
(§8) 1; Reagent; 2 uL; SMMTase Enzyme (2x) in reaction buffer, columns 1- 48.
(§9) 2; Reagent; 1 uL; SAM (4x) in reaction buffer, columns 1-48.
(§10) 3; Controls; 23 nL; DMSO in column 4; sinefungin in DMSO (0 uM - 40 uM) in 7-point 1:2 dilution series (n = 2) in column 2.
(§11) 4; Compounds; 23 nL; Columns 5-48.
(§12) 5; Reagent; 1 uL; Substrate (4x) in reaction buffer, columns 2-48.
(§13) 6; Time; 20-30 min; Incubation.
(§14) 7; Reagent; 1 uL; MTase-Glo reagent (5X), columns 1-48.
(§15) 8; Time; 30 min; Incubation.
(§16) 9; Reagent; 5 uL; MTase-Glo Detection reagent, columns 1-48.
(§17) 10; Time; 30 min; Incubation, luminescence evolution.
(§18) 11; Detection; Luminescence; ViewLux uHTS Microplate Imager (PerkinElmer).
(§19) NOTES (numbers refer to Sequence numbers above)
(§20) 1, 2, 5. White Medium Binding Greiner 1536-well plates (Cat #789175-F, Greiner Bio-One, Monroe, NC); Reaction buffer: 50 mM Tris, pH 8.0, 3 mM MgCl2, 1 mM EDTA, 50 mM NaCl, 1 mM DTT, and 0.1 mg/mL BSA. Evaporation was prevented by covering assay plates with metal lids containing holes to allow gas diffusion.
(§21) 1. Six SMMTase were profiled: HNMT, GNMT, PNMT, COMT, NNMT, GAMT
(§22) 5. The corresponding substrate was used for each enzyme: HNMT - 5.3 uM Histamine; GNMT - >500 uM Glycine; PNMT - 16.2 uM Norephinephrine; COMT - 13.7 uM Norephinephrine; NNMT - 3.8 uM Nicotinamide; GAMT - 2.5 uM Guanidinoacetate.6, 8, 10. Room temperature
(§23) 6. Final reaction conditions: 10 nM COMT, 5 uM SAM, 15 uM norepinephrine, 50 mM Tris, pH 8.0, 3 mM MgCl2, 1 mM EDTA, 50 mM NaCl, 1 mM DTT, and 0.1 mg/mL BSA; refer to tables 2 and S1 for specific timing.
8. […]

Assay [2] has as its target Guanidinoacetate N-methyltransferase (Homo sapiens) (UniProt Q14353). As to conditions: purified enzyme, MTase-Glo SAH luminescence; measured here: GAMT inhibition; at 40 µM; stronger effect = lower value.
From the text: as §1, §2, §3, §4, §5, §6, §7, §8, §9, §10, §11, §12, §13, §14, §15, §16, §17, §18, §19, §20, §21, §22, §23
8. […]

Assay [3] deals with Histamine N-methyltransferase (Homo sapiens) (UniProt P50135). As to conditions: purified enzyme, MTase-Glo SAH luminescence; measured here: HNMT inhibition; at 40 µM; stronger effect = lower value.
From the text: as §1, §2, §3, §4, §5, §6, §7, §8, §9, §10, §11, §12, §13, §14, §15, §16, §17, §18, §19, §20, §21, §22, §23
8. […]

The target in assay [4] is Nicotinamide N-methyltransferase (Homo sapiens) (UniProt P40261). As to conditions: purified enzyme, MTase-Glo SAH luminescence; measured here: NNMT inhibition; at 40 µM; stronger effect = lower value.
From the text: as §1, §2, §3, §4, §5, §6, §7, §8, §9, §10, §11, §12, §13, §14, §15, §16, §17, §18, §19, §20, §21, §22, §23
8. […]

Assay [5] deals with Phenylethanolamine N-methyltransferase (Homo sapiens) (UniProt P11086). To be noted: purified enzyme, MTase-Glo SAH luminescence; measured here: PNMT inhibition; at 40 µM; stronger effect = lower value.
From the text: as §1, §2, §3, §4, §5, §6, §7, §8, §9, §10, §11, §12, §13, §14, §15, §16, §17, §18, §19, §20, §21, §22, §23
8. […]

This is one part of the list. Shown are side measurements of this screen, not its main read-out; they come without a call.
% is set by controls: 0 for no effect and ±100 for the full control effect.

Turning to `CN(CCCNC(=O)c1ccc2nc3c(c(Cl)c2c1)CCCC3)Cc1ccccc1`, the activity change, negative = inhibition in assay [1] is -13.6%; in assay [2], 7.09%; in assay [3], -47.3%; in assay [4], -32.2%; in assay [5], -7.76%.

For `CC1CCN(S(=O)(=O)c2ccc3c(ccn3CC(=O)NCCc3cccs3)c2)CC1`, the activity change, negative = inhibition in assay [1] was 5.88%; in assay [2], 1.09%; in assay [3] it was 4.19%; in assay [4], -0.291%; in assay [5], 1.19%.

As to `CCCCOC(=O)COc1ccc2c(-c3ccccc3)cc(=O)oc2c1`, the activity change, negative = inhibition is -5.37% in assay [1]; 2.8% in assay [2]; -2.53% in assay [3]; -4.36% in assay [4]; -11.4% in assay [5].

Regarding `Cc1cc(C)cc(NC(=O)N2CCC(CCc3nc(C4CCOCC4)no3)CC2)c1`, the activity change, negative = inhibition in assay [1] is -6.2%; in assay [2], -9.11%; in assay [3], -2.55%; in assay [4], -8.29%; in assay [5] it was -5.19%.

In the case of `CCOC(=O)c1cc2n(n1)CC(C)(C(=O)NCc1ccc(C)cc1)N(c1cc(C)cc(C)c1)C2=O` (stereo not given), the activity change, negative = inhibition in assay [1] was 2.43%; in assay [2] it was 1.01%; in assay [3], 4.99%; in assay [4], 2.48%; in assay [5], 3.35%.

Turning to `CC(C)CNC(=O)c1ccc2c(=O)nc3c(-c4cccc(F)c4)n[nH]n3c2c1`, the activity change, negative = inhibition in assay [1] is -0.201%; in assay [2] it was 3.79%; in assay [3], 1.59%; in assay [4] it was 2.53%; in assay [5], 0.409%.

Take `O=C(c1cccc(OC2CN(C3CCSCC3)C2)c1)N1CCCC1`: the activity change, negative = inhibition in assay [1] was -3.18%; in assay [2], -1.95%; in assay [3], -5.57%; in assay [4], -6.31%; in assay [5], 0.774%.

Consider `CCN1c2cc(C(=O)NCCc3ccccc3)ccc2C(=O)N2CCCCCC21` (stereo not given), for which the activity change, negative = inhibition was -5.07% in assay [1]; -5.83% in assay [2]; -10% in assay [3]; -11.9% in assay [4]; -9.4% in assay [5].

As for `O=C1CC(=O)Nc2cc(S(=O)(=O)Nc3ccc(Br)cc3F)ccc2N1`, the activity change, negative = inhibition stood at 14.6% in assay [1]; 4.6% in assay [2]; 14.4% in assay [3]; 7.11% in assay [4]; 7.89% in assay [5].

Take `CC(C)c1ccc(NS(=O)(=O)c2cc3c(cc2Cl)n(C)c(=O)n3C)cc1`: the activity change, negative = inhibition was 1.76% in assay [1]; 0% in assay [2]; -0.829% in assay [3]; -9.12% in assay [4]; -0.28% in assay [5].

For `CCc1ccc(N2C(=O)CSc3c(c4ccccc4n3C)C2C(=O)NCCCOC(C)C)cc1` (stereo not given), the activity change, negative = inhibition in assay [1] was 2.85%; in assay [2] it was 2.66%; in assay [3], -4.15%; in assay [4] it was -3.06%; in assay [5], -1.87%.

Take `COc1ccccc1CNc1nc2c(S(=O)(=O)c3ccc(C)c(C)c3)nnn2c2ccccc12`: the activity change, negative = inhibition in assay [1] is -5.43%; in assay [2] it was 1.18%; in assay [3], -2.85%; in assay [4] it was -0.843%; in assay [5], -6.7%.

In the case of `Cc1nn(CC(=O)NCCCN2CCCCC2)c(=O)c2nc(-c3ccccc3)sc12`, the activity change, negative = inhibition in assay [1] is -7.82%; in assay [2], -5.93%; in assay [3], -36.4%; in assay [4], -8.05%; in assay [5], -2.68%.

For `Cc1cc2c(cc3n2CC(C)(C(=O)NC2CCCCCCC2)N(Cc2cccnc2)C3=O)o1` (stereo not given), the activity change, negative = inhibition in assay [1] is -5.93%; in assay [2], 0%; in assay [3], 6.53%; in assay [4], -5.24%; in assay [5], -2.17%.

(Values after PubChem BioAssay AID1745853 (National Center for Advancing Translational Sciences (NCATS), 2022).)
